# In PubChem BioAssay AID904 (National Center for Advancing Translational Sciences (NCATS), 2007):
# Among all 55,000 compounds or so, about 530 (0.96%) were called active. The inconclusive results got no clear call from the source; some entries with a clear call stand among them for comparison. Calls follow the shape of the dose curve; as a rule, active = well fitted cell-killing curve with a large enough effect; inconclusive = small, poorly fitted or top-dose-only effect; inactive = no such curve, though single readings can be large or run the other way. A potency beside an inconclusive call is a rough fit, not a confirmed value.
# Assay: qHTS Screen for Compounds that Selectively Target Cancer Cells with p53 Mutations: Cytotoxicity of p53 Null Cells at the Nonpermissive Temperature; also: nearly all actives have a fitted effect of over 50% in size;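 as to activity, negative = cell killing: 0% = DMSO only and -100% = full killing by 100 µM tamoxifen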
# Conditions: H1299 p53-null (neo) cells, 39C, ATPlite viability, 24 h; activity, negative = cell killing: at 46.1 µM (top of the series)
# Method in brief: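 Luminescent ATP signal reported cell survival after H1299 lines (neo, p53 null; or p53 A138V) received up to 46 uM compound and 24 hr incubation at 39C.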
# Potency is read from the fitted curve at half-maximal effect; tags tell the direction and shape of the fitted curve.
SMILES,"activity, negative = cell killing",Potency
CCOC(=O)c1c(NC(=O)COc2ccc(Br)cc2)sc(C(C)=O)c1C,inactive: 0.133%,
O=C(COc1ccc(F)cc1)Nc1ccc(Cl)c(-c2nc3ccccc3[nH]2)c1,,"inconclusive: 31.6 µM [cytotoxic, single point]"
Cc1noc(C)c1S(=O)(=O)NCCc1csc2nc(-c3ccc(Cl)cc3)nn12,,"inconclusive: 0.0158 µM [cytotoxic, full curve, poor fit]"
CCNC(=O)CC1SC(=Nc2ccccc2C)N(C)C1=O (stereo unspecified),inactive: 15.3%,
COc1ccccc1OCc1nc(-c2cccc(C)c2)no1,,"inconclusive: 31.6 µM [cytotoxic, single point]"
CCn1c(CC2C(=O)N(C)c3ccc(Br)cc32)nc2ccccc2c1=O (stereo unspecified),,"inconclusive: 15.8 µM [cytotoxic, single point]"
COc1ccc(CNC(=O)c2cn(-c3cccc(OC)c3)c(=O)c3ccccc23)cc1,,"inconclusive: 31.6 µM [cytotoxic, single point]"
CCC1CN(C(=O)N2CCC(C(=O)N3CCN(c4cc(C)ccc4C)CC3)CC2)c2ccccc2O1 (stereo unspecified),,"inconclusive: 0.316 µM [cytotoxic, full curve]"
CCCCCn1c(=O)c2c(nc3n2CCN3c2ccc(Br)cc2)n(C)c1=O,,"inconclusive: 0.794 µM [cytotoxic, full curve]"
O=C(Cc1ccc(Cl)cc1)Nc1ccc2oc(-c3ccccc3F)nc2c1,,"inconclusive: 12.6 µM [cytotoxic, partial curve]"
CCOc1ccccc1NS(=O)(=O)c1cc(-c2cnc(C3CC3)o2)ccc1C,inactive: -7.53%,
CCCCNC(=O)CN1CCN(c2ncc(NC(=O)c3ccc(Cl)cc3)cc2C(=O)O)CC1,inactive: 7.02%,
Cc1ccc(O)c(-c2n[nH]c3c2C(c2ccc(F)cc2)N(Cc2ccco2)C3=O)c1 (stereo unspecified),,"inconclusive: 25.1 µM [cytotoxic, single point]"
CCOc1ccc(NC(=O)CSc2oc(-c3ccc(C)cc3)nc2S(=O)(=O)c2ccc(C)cc2)cc1,,active: 12.6 µM
Cc1cccc(CNC(=O)CN2C(=O)CCn3nc(-c4cn(C)c5ccccc45)cc32)c1,inactive: -19.9%,
COc1ccccc1-c1nc2cc(NC(=O)c3ccccc3Cl)ccc2o1,,"inconclusive: 22.4 µM [cytotoxic, single point]"
COc1cc(NS(=O)(=O)c2ccc(-c3cc(C)no3)cc2)cc(OC)c1,inactive: 10.6%,
CCOc1ccc(C(=O)Nc2ccc3c(c2)OCCO3)cc1Br,,active: 12.6 µM
Cc1ccccc1C(=O)OCc1cc(=O)n2nc(C(C)C)sc2n1,,"inconclusive: 0.0158 µM [cytotoxic, full curve, poor fit]"
Cc1ccc(-c2nnc(Nc3cccc(O)c3)c3ccccc23)cc1S(=O)(=O)NCC1CCCO1 (stereo unspecified),,"inconclusive: 12.6 µM [cytotoxic, single point]"
C=CCOc1ccc2c(OC)c3ccoc3nc2c1OC,,"inconclusive: 12.6 µM [cytotoxic, single point]"
CC(c1ccccc1)n1cc2c(c1-c1ccccc1Br)c(=O)n(C)c(=O)n2C (stereo unspecified),inactive: 10.3%,

SMILES,"activity, negative = cell killing",Potency
Cc1cccc(-c2nnn3c2nc(NCc2ccc4c(c2)OCO4)c2ccccc23)c1,,"inconclusive: 5.01 µM [cytotoxic, single point]"
Cc1ccc(S(=O)(=O)Nc2cc3c(cc2NCc2ccccc2)n(C)c(=O)n3C)cc1,,"inconclusive: 12.6 µM [cytotoxic, partial curve]"
O=C(CSc1ncc(-c2ccccc2)[nH]1)Nc1ccc(Cl)cc1,,"inconclusive: 12.6 µM [cytotoxic, single point]"
Cc1cc(N2CCN(C)CC2)nc2ccc(NC(=O)Nc3cccc(Cl)c3)cc12,,"inconclusive: 20 µM [cytotoxic, single point]"
COc1ccc(NC(=O)c2ccc3nccnc3c2)cc1,,"inconclusive: 11.2 µM [cytotoxic, single point]"
CC1CCCCN1C(=O)Cn1ncc2c3ccccc3n(Cc3ccccc3F)c2c1=O (stereo unspecified),,"inconclusive: 0.005 µM [cytotoxic, full curve, poor fit]"
Cc1ccc(NC(=O)Cn2c(=O)oc3cc(S(=O)(=O)N4CCCCC4)ccc32)c(Cl)c1,,"inconclusive: 14.1 µM [cytotoxic, single point]"
Cc1ccc2nc(NC(=O)CSc3nccn3-c3ccc(Cl)cc3)sc2c1,inactive: 13.3%,
CCCc1nc2ccccc2n1CC(O)COc1ccc(C(=O)OC)cc1 (stereo unspecified),,"inconclusive: 0.398 µM [cytotoxic, full curve, poor fit]"
CC1CN(C(=O)CCC(=O)Nc2cc(F)ccc2F)c2ccccc2S1 (stereo unspecified),inactive: -11%,
Cc1cc(CN2CCN(c3cccc(C)c3C)CC2)cs1,,"inconclusive: 0.0316 µM [cytotoxic, full curve]"
CCN(c1ccccc1)S(=O)(=O)c1ccc(-c2cc(C)no2)s1,,"inconclusive: 5.01 µM [cytotoxic, partial curve]"
Cc1ccc(/C=N/NC(=O)C2=NNC(c3ccccc3)(c3ccccc3)C2)c(O)c1,,"inconclusive: 2.24 µM [cytotoxic, full curve, poor fit]"
COc1cccc(CNC(=O)CSc2ncc(S(=O)(=O)c3ccc(Br)cc3)c(=O)[nH]2)c1,inconclusive: -35.1% [cytotoxic],
CCOC(=O)c1ccc(NC(=O)c2csnn2)cc1,,"inconclusive: 6.31 µM [cytotoxic, partial curve]"
Fc1ccc(Cc2cn3cc(-c4ccccc4)nc3s2)cc1,,active: 2 µM
CCN(CC)CCCNC(=O)c1ccc2c(c1)NC(=O)C(CS(=O)(=O)Cc1cccc(Br)c1)N2 (stereo unspecified),inactive: 41.6%,
CCc1ccc(NCc2cc3cc(OC)c(OC)cc3n(CC(=O)Nc3cc(C)ccc3C)c2=O)cc1,inactive: -15.2%,
CCOc1nc(NC(=O)NS(=O)(=O)Oc2ccccc2)nc(-c2ccccc2)n1,,"inconclusive: 1.26 µM [cytotoxic, partial curve]"
COc1ccc(-c2noc(CSc3nnc(-c4ccncc4)n3-c3ccc(C)cc3)n2)cc1,inactive: 14.6%,
CCc1ccc(Sc2cc(C(=O)NC(C)CC)c3ccccc3n2)cc1 (stereo unspecified),inactive: 6.3%,
CCOc1cc(C(=O)N2CCc3c([nH]c4ccccc34)C2c2ccccc2)cc(OCC)c1OCC (stereo unspecified),inactive: -2.01%,

SMILES,"activity, negative = cell killing",Potency
COc1ccccc1Nc1nn2c(=O)c3ccc(C(=O)NCc4ccc(F)cc4)cc3nc2s1,,active: 3.98 µM
Cc1ccc(C)c(N2CCN(c3nc4ccccc4n4c(C)nnc34)CC2)c1,,"inconclusive: 35.5 µM [cytotoxic, single point]"
COc1ccc(CNc2cc(-c3ccc(OC)cc3)nc3nncn23)cc1,,"inconclusive: 2.51 µM [cytotoxic, partial curve]"
CCOC(=O)c1oc2c(c1C)-c1nn(Cc3ccccc3Cl)cc1CC2,inactive: 24.5%,
Cc1ccc(C)c(NC(=O)C(=O)NCCc2csc3nc(-c4ccccc4C)nn23)c1,,"inconclusive: 25.1 µM [cytotoxic, single point]"
COC(=O)NCc1c(C)nn(-c2ccccc2)c1-n1cccc1,,"inconclusive: 15.8 µM [cytotoxic, single point]"
CCOc1ccc(Br)cc1CNCCSc1nnnn1-c1ccccc1,,"inconclusive: 0.004 µM [cytotoxic, full curve, poor fit]"
COc1ccc(N(Cc2cccs2)C(=O)COc2ccc(C(C)C)cc2)cc1,,"inconclusive: 8.91 µM [cytotoxic, partial curve]"
CCOc1ccc2nc(N3CCCC(C(=O)Nc4cccc(Cl)c4C)C3)sc2c1 (stereo unspecified),,"inconclusive: 0.199 µM [cytotoxic, full curve, poor fit]"
CCn1cc(C(=O)NCCc2ccc(C)cc2)c(=O)c2cc(S(=O)(=O)N3CCCCC3)ccc21,inactive: 4.03%,
COc1ccc(-c2nc(Cn3c(SCc4ccccc4F)nc4ccncc43)c(C)o2)cc1OC,,"inconclusive: 12.6 µM [cytotoxic, partial curve]"
Cc1ccc(S(=O)(=O)c2nnn3c2nc(N2CCN(c4ccc(F)cc4)CC2)c2cc(Cl)ccc23)cc1C,,"inconclusive: 25.1 µM [cytotoxic, single point]"
COc1cccc(C(=O)NCC(c2ccc(N(C)C)cc2)N2CCCC2)c1OC (stereo unspecified),,"inconclusive: 0.0501 µM [cytotoxic, full curve, poor fit]"
Cc1ccc(-c2nc3cc(C(C)C)ccc3o2)cc1NC(=O)c1cccs1,,"inconclusive: 12.6 µM [cytotoxic, single point]"
COc1ccccc1N1CCN(C(CNC(=O)C(=O)NCCCN(C)C)c2cccnc2)CC1 (stereo unspecified),,"inconclusive: 0.01 µM [cytotoxic, full curve, poor fit]"
Cc1cc2nc(-c3cc(NC(=O)c4cc5ccccc5o4)ccc3Cl)oc2cc1C,,"inconclusive: 7.94 µM [cytotoxic, partial curve]"
COc1cc(-c2nnc(SCC(=O)Nc3ccc(F)c(Cl)c3)o2)cc(OC)c1OC,,"inconclusive: 35.5 µM [cytotoxic, single point]"
CCOC(=O)c1sc(NC(=O)/C=C/c2ccc(OCC)cc2)c(C(=O)OCC)c1C,inactive: -3.61%,
CCOC(=O)c1cc(C)n(CC2CCC(C(=O)Nc3ccc(Cl)cc3)CC2)c1C (stereo unspecified),,"inconclusive: 3.55 µM [cytotoxic, partial curve]"
COC(=O)c1nnn(-c2ccccc2)c1N,,"inconclusive: 17.8 µM [cytotoxic, partial curve, poor fit]"
Cc1cc(C)cc(OCCCn2c(CCNC(=O)C3CCCCC3)nc3ccccc32)c1,,"inconclusive: 31.6 µM [cytotoxic, single point]"
CNC(=O)c1ccc(Nc2nnc(-c3ccc(C)c(S(=O)(=O)N(C)C)c3)c3ccccc23)cc1,,"inconclusive: 0.0251 µM [cytotoxic, full curve, poor fit]"
